In all, about 52,000 compounds went through this assay and about 1,700 (3.3%) were called active. No stated cut-off is given here; in the data, active means survival mostly below about 52% (no sharp cut-off); inactive means mostly above about 56%. The list shows a part of the results.
test system: Wild type; test: growth inhibition of S. aureus wild type versus tarO mutant, primary screen, teichoic acid synthesis inhibitors, RN4220, OD600 (AID 463173); conditions: S. aureus RN4220 wild type/DeltatarO growth, OD600, 18 h, stronger effect = lower value, screened at 18.75 µg/mL (by protocol)

Compound | survival
CC1CCc2c(nc3ncnn3c2NCCN(C)C)C1 (stereo unspecified) | inactive: 102%
CSc1ccccc1NC(=O)CCS(=O)(=O)c1nc(-c2cccs2)cc(C(F)(F)F)n1 | inactive: 83%
COC(=O)c1csc(N)n1 | inactive: 112%
CCN(CC)CCOC(=O)c1ccc(NC(=O)CCn2c(=O)oc3ccccc32)cc1 | inactive: 69%
CCN(CC)C(=O)Cn1cc(C(=O)C(C)C)c2ccccc21 | inactive: 115%
N#Cc1ccccc1NC(=O)C(=O)NCC(c1cccnc1)N1CCc2ccccc2C1 (stereo unspecified) | inactive: 82%
CCC1=NN(C(=O)C(C)C)C(O)(C(F)(F)F)C1 (stereo unspecified) | inactive: 105%
COC(=O)C1C(=O)C2=C(CC1C)Nc1ccccc1NC2c1ccc(C)cc1 (stereo unspecified) | inactive: 111%
CCCCN(C)c1ncnc2c1cnn2-c1cccc(Cl)c1 | inactive: 95%
O=C(Nc1cccc(F)c1)N1C2CCC1CC(O)(c1cccnc1)C2 (stereo unspecified) | inactive: 109%
COc1ccc(OC)c(CCNC(=O)C(C)n2nc(C)c3c(C)n(-c4ccc(C)cc4)nc3c2=O)c1 (stereo unspecified) | inactive: 88%
CCOc1ccccc1NC(=O)C1CCCN(S(=O)(=O)c2ccc3c(c2)CCCN3C(C)=O)C1 (stereo unspecified) | inactive: 66%
CCC(=O)N1CCc2cc(S(=O)(=O)NCCC(=O)Nc3cccc(C)c3C)ccc21 | inactive: 117%
Cc1cc(SCC(=O)NCc2ccccc2)nc(=O)[nH]1 | inactive: 70%
COc1cccc(CNc2ccc3c(c2)ncn3C)c1OC | inactive: 121%
CN(C)C(=O)Cn1c2[n+](c3ccccc31)CC(O)CS2 (stereo unspecified) | inactive: 103%
CCc1ccc(S(=O)(=O)c2nnn3c2nc(Nc2cccc(C)c2C)c2sccc23)cc1 | inactive: 71%
O=C(NCc1ccccc1Br)c1ccc(-n2cnc3cccnc32)cc1 | inactive: 152%
COc1ccc(N(CC(=O)Nc2ccc(Cl)cc2C)S(=O)(=O)c2ccccc2)c(OC)c1 | inactive: 113%
COc1cc(-c2nnc(SCC(=O)N3CCCc4ccccc43)o2)cc(OC)c1OC | inactive: 73%
CCCN(C(=O)CCn1cnc2onc(-c3ccc(F)cc3)c2c1=O)c1ccccc1C | inactive: 72%
Cc1cc(C)cc(C(=O)Nc2c3c(nn2-c2ccccc2C)CS(=O)(=O)C3)c1 | inactive: 127%
CCOC(=O)c1c(-c2ccccc2)csc1NC(=O)c1cc(-c2cccc(OC)c2)on1 | inactive: 72%
Cc1ccc(Cl)cc1N1CCN(C(=O)Cn2nc(C)n3c(cc4sccc43)c2=O)CC1 | inactive: 122%
O=C(Cn1nc2c(cc1=O)CCCC2)NCc1ccccc1Cl | inactive: 148%
Cc1ccc(C(=O)Nc2nnc(SCc3cc(=O)n4ccc(C)cc4n3)s2)cc1 | inactive: 129%
